Data from the supplement of paper PMC12217912.
The list shows a part of the results. The full chains were built here from the parent and the listed change. Values near 0.05 are background.

B1: TEV protease; numbered along this chain (parent)
chain: MGESLFKGPRDYNPISSSICHLTNESDGHTTSLYGIGFGPFIITNKHLFRRNNGTLVVQSLHGVFKVKDTTTLQQHLVDGRDMIIIRMPKDFPPFPQKLKFREPQREERICLVTTNFQTKSMSSMVSDTSCTFPSGDGIFWKHWIQTKDGQCGSPLVSTRDGFIVGIHSASNFTNTNNYFTSVPKNFMELLTNQEAQQWVSGWRLNADSVLWGGHKVFMVKPEEPFQPVKEATQL

Variants of: B1
Assay: raw area under fraction-flipped curve 0-4 h after induction (AUC4h, not background-subtracted), DNA-recorder readout of cleavage of the substrate (dimensionless); higher = more cleavage of the substrate by the protease variant
Conditions: temperature: 34 °C; time window: 0-4 h after rhamnose induction
Experimental: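 In vivo DNA recorder in E. coli TOP10(DE3) ΔrhaA at 34 °C. Each TEVp single-site mutant (parent TEVp 0) is paired with a single-site variant of the 7-mer TEVs (canonical ENLYFQ|S). The substrate sits between flexible linkers in a Bxb1-sfGFP-TEVs-SsrA fusion, so cleavage stabilises Bxb1 and speeds flipping of a recombination array, read by NGS. The value is the raw area under the fraction-flipped curve over 0-4 h after rhamnose induction (AUC4h), with ≥20 reads per time point. It is not background-subtracted; inactive controls average about 0.047.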
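Further: Bxb1 expression induced with 0.2% (w/v) L-rhamnose at OD600 near 0.5, cultures sampled hourly, flipped fraction per protease–substrate barcode pair counted by paired-end Illumina sequencing.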

Variant | area with substrate CNLYFQS | area with substrate FNLYFQS | area with substrate GNLYFQS | area with substrate HNLYFQS | area with substrate KNLYFQS | area with substrate LNLYFQS | area with substrate MNLYFQS | area with substrate PNLYFQS | area with substrate SNLYFQS | area with substrate TNLYFQS | area with substrate VNLYFQS | area with substrate WNLYFQS | area with substrate YNLYFQS | area with substrate INLYFQS | area with substrate NNLYFQS | area with substrate RNLYFQS
MGESLFKGPRDYNPISSSICHLTNESDGHTTSLYGIGFGPFIITNKHLFRRNNGTLVVQSLHGVFKVKDTTTLQQHLVDGRDMIIIRMPKDFPPFPQKLKFREPQREERICLVTTNFQTKSMSSMVCDTSCTFPSGDGIFWKHWIQTKDGQCGSPLVSTRDGFIVGIHSASNFTNTNNYFTSVPKNFMELLTNQEAQQWVSGWRLNADSVLWGGHKVFMVKPEEPFQPVKEATQL [S127C] | 0.079 | 0.0742 | 0.0708 | 0.0765 | 0.0513 | 0.0741 | 0.0734 | 0.0704 | 0.0602 | 0.0505 | 0.0728 | 0.0585 | 0.0712 |  |  | 
MGESLFKGPRDYNPISSSICHLTNESDGHTTSLYGIGFGPFIITNKHLFRRNNGTLVVQSLHGVFKVKDTTTLQQHLVDGRDMIIIRMPKDFPPFPQKLKFREPQREERICLVTTNFQTKSMSSMVQDTSCTFPSGDGIFWKHWIQTKDGQCGSPLVSTRDGFIVGIHSASNFTNTNNYFTSVPKNFMELLTNQEAQQWVSGWRLNADSVLWGGHKVFMVKPEEPFQPVKEATQL [S127Q] | 0.0584 | 0.0515 |  | 0.0831 | 0.0657 | 0.0598 | 0.066 | 0.0787 | 0.0582 | 0.0726 | 0.0611 | 0.0477 |  | 0.0749 |  | 
MGESLFKGPRDYNPISSSICHLTNESDGHTTSLYGIGFGPFIITNKHLFRRNNGTLVVQSLHGVFKVKDTTTLQQHLVDGRDMIIIRMPKDFPPFPQKLKFREPQREERICLVTTNFQTKSMSSMVWDTSCTFPSGDGIFWKHWIQTKDGQCGSPLVSTRDGFIVGIHSASNFTNTNNYFTSVPKNFMELLTNQEAQQWVSGWRLNADSVLWGGHKVFMVKPEEPFQPVKEATQL [S127W] | 0.0593 | 0.0884 | 0.0882 | 0.0539 | 0.0736 | 0.0752 | 0.0533 |  |  |  | 0.0476 | 0.0417 | 0.0572 | 0.0636 | 0.0867 | 
MGESLFKGPRDYNPISSSICHLTNESDGHTTSLYGIGFGPFIITNKHLFRRNNGTLVVQSLHGVFKVKDTTTLQQHLVDGRDMIIIRMPKDFPPFPQKLKFREPQREERICLVTTNFQTKSMSSMVSDGSCTFPSGDGIFWKHWIQTKDGQCGSPLVSTRDGFIVGIHSASNFTNTNNYFTSVPKNFMELLTNQEAQQWVSGWRLNADSVLWGGHKVFMVKPEEPFQPVKEATQL [T129G] | 0.0675 |  |  |  |  |  |  | 0.0693 |  |  |  |  |  |  |  | 
MGESLFKGPRDYNPISSSICHLTNESDGHTTSLYGIGFGPFIITNKHLFRRNNGTLVVQSLHGVFKVKDTTTLQQHLVDGRDMIIIRMPKDFPPFPQKLKFREPQREERICLVTTNFQTKSMSSMVSDNSCTFPSGDGIFWKHWIQTKDGQCGSPLVSTRDGFIVGIHSASNFTNTNNYFTSVPKNFMELLTNQEAQQWVSGWRLNADSVLWGGHKVFMVKPEEPFQPVKEATQL [T129N] | 0.0481 |  | 0.0659 | 0.0604 |  | 0.0637 | 0.0773 |  |  | 0.0671 | 0.0773 | 0.0592 | 0.0579 | 0.0659 | 0.0588 | 
MGESLFKGPRDYNPISSSICHLTNESDGHTTSLYGIGFGPFIITNKHLFRRNNGTLVVQSLHGVFKVKDTTTLQQHLVDGRDMIIIRMPKDFPPFPQKLKFREPQREERICLVTTNFQTKSMSSMVSDTHCTFPSGDGIFWKHWIQTKDGQCGSPLVSTRDGFIVGIHSASNFTNTNNYFTSVPKNFMELLTNQEAQQWVSGWRLNADSVLWGGHKVFMVKPEEPFQPVKEATQL [S130H] | 0.0833 | 0.0298 | 0.0696 |  |  |  | 0.0618 | 0.0563 |  | 0.0674 | 0.052 | 0.0538 | 0.0494 | 0.0567 | 0.0736 | 0.0578
MGESLFKGPRDYNPISSSICHLTNESDGHTTSLYGIGFGPFIITNKHLFRRNNGTLVVQSLHGVFKVKDTTTLQQHLVDGRDMIIIRMPKDFPPFPQKLKFREPQREERICLVTTNFQTKSMSSMVSDTKCTFPSGDGIFWKHWIQTKDGQCGSPLVSTRDGFIVGIHSASNFTNTNNYFTSVPKNFMELLTNQEAQQWVSGWRLNADSVLWGGHKVFMVKPEEPFQPVKEATQL [S130K] | 0.0716 | 0.0558 |  | 0.0588 | 0.0788 | 0.0743 | 0.0537 | 0.0616 | 0.0597 | 0.0584 | 0.0616 | 0.0552 |  | 0.0584 |  | 
MGESLFKGPRDYNPISSSICHLTNESDGHTTSLYGIGFGPFIITNKHLFRRNNGTLVVQSLHGVFKVKDTTTLQQHLVDGRDMIIIRMPKDFPPFPQKLKFREPQREERICLVTTNFQTKSMSSMVSDTMCTFPSGDGIFWKHWIQTKDGQCGSPLVSTRDGFIVGIHSASNFTNTNNYFTSVPKNFMELLTNQEAQQWVSGWRLNADSVLWGGHKVFMVKPEEPFQPVKEATQL [S130M] | 0.0169 | 0.0602 |  | 0.0635 |  | 0.0678 |  |  | 0.0566 | 0.0652 |  |  | 0.0671 |  | 0.0661 | 
MGESLFKGPRDYNPISSSICHLTNESDGHTTSLYGIGFGPFIITNKHLFRRNNGTLVVQSLHGVFKVKDTTTLQQHLVDGRDMIIIRMPKDFPPFPQKLKFREPQREERICLVTTNFQTKSMSSMVSDTSVTFPSGDGIFWKHWIQTKDGQCGSPLVSTRDGFIVGIHSASNFTNTNNYFTSVPKNFMELLTNQEAQQWVSGWRLNADSVLWGGHKVFMVKPEEPFQPVKEATQL [C131V] | 0.0589 |  |  |  | 0.0695 |  | 0.0732 |  |  |  |  |  |  | 0.0696 | 0.0759 | 
MGESLFKGPRDYNPISSSICHLTNESDGHTTSLYGIGFGPFIITNKHLFRRNNGTLVVQSLHGVFKVKDTTTLQQHLVDGRDMIIIRMPKDFPPFPQKLKFREPQREERICLVTTNFQTKSMSSMVSDTSCTAPSGDGIFWKHWIQTKDGQCGSPLVSTRDGFIVGIHSASNFTNTNNYFTSVPKNFMELLTNQEAQQWVSGWRLNADSVLWGGHKVFMVKPEEPFQPVKEATQL [F133A] | 0.0664 | 0.0618 |  |  |  | 0.0662 | 0.062 | 0.0699 |  | 0.0606 | 0.0701 | 0.0601 |  |  | 0.0673 | 
